Measurements reported in the BET-seq Pho4 binding data (Le et al. 2018).
The list shows a part of the results. The energies were worked out here from pooled read counts, against the library average; single values are noisy.

Target: T1, Pho4 (S. cerevisiae) (UniProt P07270)
T1 sequence: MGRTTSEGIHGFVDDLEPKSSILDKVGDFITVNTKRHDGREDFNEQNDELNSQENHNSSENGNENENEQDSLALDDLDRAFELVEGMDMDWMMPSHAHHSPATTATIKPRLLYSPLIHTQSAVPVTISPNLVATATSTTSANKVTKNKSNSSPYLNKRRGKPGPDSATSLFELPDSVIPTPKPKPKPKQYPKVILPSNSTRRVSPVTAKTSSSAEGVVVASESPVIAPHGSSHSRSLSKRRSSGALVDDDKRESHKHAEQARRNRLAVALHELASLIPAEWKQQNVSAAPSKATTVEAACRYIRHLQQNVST
Experiment: relative binding free energy (BET-seq); higher = weaker binding
Settings: reference: library average

Sequence | relative binding free energy
AAAGGCACGTGGGCGA | -0.14 kcal/mol
TTCTGCACGTGAGTGG | 0.17 kcal/mol
TGTATCACGTGCTGAT | 0.1 kcal/mol
TCGGTCACGTGGGTCG | -0.14 kcal/mol
AGGGACACGTGGTCTG | -0.22 kcal/mol
TTTAACACGTGAGAAG | 0.34 kcal/mol
AGGTTCACGTGTGGTT | 0.3 kcal/mol
GTAAACACGTGGGATT | -0.06 kcal/mol
TTAAGCACGTGGCAGT | -0.1 kcal/mol
GCAGGCACGTGTGTTA | -0.13 kcal/mol
GGATACACGTGGAGGC | 0.09 kcal/mol
CTGGCCACGTGAGTTT | 0.31 kcal/mol
TTATGCACGTGCATGG | -0.12 kcal/mol
TTGTACACGTGTTTAT | 0.04 kcal/mol
AGTAACACGTGGGATA | -0.15 kcal/mol
ATTTACACGTGTGATA | 0.12 kcal/mol
TCTTTCACGTGGTAGC | 0.25 kcal/mol
CATAGCACGTGAGGGT | 0.11 kcal/mol
TGAATCACGTGGGTTG | 0.14 kcal/mol
TGATGCACGTGTCTTG | -0.07 kcal/mol
ACAGCCACGTGGGGTG | -0.23 kcal/mol
TTTGACACGTGTTTGA | 0.03 kcal/mol
TGTCTCACGTGTTTAA | 0.26 kcal/mol
CGGGACACGTGGCGTG | -0.12 kcal/mol
TGTGGCACGTGAAAGG | 0.14 kcal/mol

Sequence | relative binding free energy
GAATGCACGTGAGGCG | 0.21 kcal/mol
AAGGGCACGTGTCAAT | 0.04 kcal/mol
TGGCTCACGTGAATGT | 0.19 kcal/mol
CAATGCACGTGATGGG | 0.15 kcal/mol
GGGATCACGTGGATTA | 0.33 kcal/mol
GGTTTCACGTGCGTGA | 0.28 kcal/mol
TCTGCCACGTGGTTGT | 0 kcal/mol
TGGGGCACGTGTTACG | -0.15 kcal/mol
AGGCTCACGTGGGTAG | -0.02 kcal/mol
TAAATCACGTGGATGA | 0.16 kcal/mol
ATGAACACGTGAAGTT | 0.43 kcal/mol
ACTGTCACGTGTTTTA | 0.16 kcal/mol
TTATCCACGTGTGAGG | 0 kcal/mol
GTTTTCACGTGCTATA | 0.05 kcal/mol
AGGTGCACGTGACAGT | 0 kcal/mol
ATGTGCACGTGGGAAC | 0 kcal/mol
GTTGACACGTGCGCGG | -0.05 kcal/mol
ACGATCACGTGGGGGG | -0.06 kcal/mol
GAGGTCACGTGTATGA | 0.17 kcal/mol
GAGGGCACGTGTAGTG | 0 kcal/mol
GAGGTCACGTGGTGTG | 0.14 kcal/mol
ATTGACACGTGCGTTT | -0.04 kcal/mol
AGTGCCACGTGCGGGT | -0.16 kcal/mol
TATGCCACGTGTCGGT | -0.02 kcal/mol
CTGCGCACGTGATGGG | 0.05 kcal/mol

Sequence | relative binding free energy
AATGACACGTGAGGGA | 0.18 kcal/mol
TGGAGCACGTGAGGAT | 0.21 kcal/mol
TAGGACACGTGAAATT | 0.51 kcal/mol
AAGTGCACGTGTGGTA | 0.02 kcal/mol
TCTGACACGTGGGTAA | 0.04 kcal/mol
TGACACACGTGAAGGG | 0.35 kcal/mol
TTGTTCACGTGATAGC | 0.35 kcal/mol
GTGTACACGTGTGAGA | 0.06 kcal/mol
ATCGACACGTGGGGCG | -0.07 kcal/mol
AGAGTCACGTGGAGAA | 0.2 kcal/mol
TTAATCACGTGTGAGA | 0.16 kcal/mol
TTAGGCACGTGAAGGG | 0.17 kcal/mol
AAGAGCACGTGATGGA | -0.01 kcal/mol
ACGGGCACGTGTTGTG | -0.12 kcal/mol
GTGGGCACGTGACGTA | -0.06 kcal/mol
CTTAGCACGTGCAGGT | 0 kcal/mol
ATGGCCACGTGTTGGT | 0.04 kcal/mol
GGTGTCACGTGAGCTG | 0.2 kcal/mol
TTGAACACGTGAATTG | 0.43 kcal/mol
GGTAGCACGTGCGGGA | 0.02 kcal/mol
ATATTCACGTGAGATT | 0.32 kcal/mol
TGTGGCACGTGTGCTG | -0.13 kcal/mol
AAGTGCACGTGAGCGT | -0.02 kcal/mol
GGCTCCACGTGTTGTT | 0.13 kcal/mol
TAAGGCACGTGATTAG | -0.06 kcal/mol

Sequence | relative binding free energy
GGTGTCACGTGTGGTA | 0.17 kcal/mol
ATGGGCACGTGTGACA | -0.01 kcal/mol
TGAGACACGTGATTGG | -0.04 kcal/mol
ATGGGCACGTGTAGGA | -0.09 kcal/mol
CGGGTCACGTGCGGGC | 0.04 kcal/mol
TGGGTCACGTGAAGAT | 0.35 kcal/mol
ATTTGCACGTGTTAAA | -0.01 kcal/mol
TCTTTCACGTGCTTTT | 0.09 kcal/mol
TGAGGCACGTGGAAAT | 0.05 kcal/mol
GGTTTCACGTGAGCAT | 0.41 kcal/mol
TACTGCACGTGGTTGA | -0.08 kcal/mol
GTAGTCACGTGTGTCG | 0.14 kcal/mol
TTTGACACGTGAATGA | 0.29 kcal/mol
GGGGACACGTGAAGTT | 0.38 kcal/mol
TTTCACACGTGCAGTG | 0.15 kcal/mol
GTTAACACGTGTGTTA | 0 kcal/mol
TGTGCCACGTGTCATG | -0.1 kcal/mol
GGTCACACGTGTTGTA | 0.14 kcal/mol
GTGGGCACGTGATTAA | 0.16 kcal/mol
AGGCGCACGTGTTTTA | -0.07 kcal/mol
TTTGTCACGTGGAGTG | -0.04 kcal/mol
GGGATCACGTGGATTG | 0.18 kcal/mol
AGTGTCACGTGGATGG | 0.09 kcal/mol
TGTTACACGTGTATTG | 0.19 kcal/mol
ATCGTCACGTGTTTTT | 0.13 kcal/mol

Sequence | relative binding free energy
GTTGTCACGTGATCAT | 0.21 kcal/mol
GCTGGCACGTGGACGT | 0.02 kcal/mol
ACTTGCACGTGTTGGT | 0.08 kcal/mol
TTTTTCACGTGTATGT | 0.25 kcal/mol
ATATTCACGTGTGCAT | 0.25 kcal/mol
ACGGACACGTGGTTGT | -0.07 kcal/mol
AGCTGCACGTGAGGGA | 0.13 kcal/mol
TCTGGCACGTGGTGCA | -0.14 kcal/mol
TTTATCACGTGTGTAT | 0.16 kcal/mol
ATTCTCACGTGGGATA | 0.07 kcal/mol
ATGTTCACGTGACGTA | 0.23 kcal/mol
GCCGTCACGTGGTGCG | 0.18 kcal/mol
GTAGTCACGTGATAGT | 0.24 kcal/mol
TATGACACGTGCTTTG | -0.19 kcal/mol
TAATTCACGTGTTAGT | 0.24 kcal/mol
GAATACACGTGTGGTG | 0.07 kcal/mol
ATATGCACGTGGGGAC | -0.07 kcal/mol
TTCACCACGTGTTGGT | -0.1 kcal/mol
GTAGACACGTGTTGGT | 0.1 kcal/mol
AATGGCACGTGTGTAG | 0.02 kcal/mol
GGCAGCACGTGTTTGT | 0.06 kcal/mol
TCTTTCACGTGTTTTA | 0.17 kcal/mol
GGGTGCACGTGGGAAC | 0 kcal/mol
TGCGGCACGTGGGCTA | -0.29 kcal/mol
AGCGGCACGTGAGTGG | 0.1 kcal/mol

Sequence | relative binding free energy
TGTGGCACGTGGACCG | -0.29 kcal/mol
AAGGACACGTGGGTGG | -0.09 kcal/mol
CTTTGCACGTGTAGGC | 0.26 kcal/mol
TTAGACACGTGCGGGG | -0.02 kcal/mol
AAGGTCACGTGTTTTT | 0.25 kcal/mol
TAAATCACGTGAGGAT | 0.53 kcal/mol
CCGTTCACGTGGGATG | 0.23 kcal/mol
GCGGGCACGTGAAATT | 0.39 kcal/mol
GTGACCACGTGGAGTG | -0.07 kcal/mol
GTTTACACGTGAAATT | 0.47 kcal/mol
TTGTTCACGTGTTAGT | 0.29 kcal/mol
ATTTTCACGTGATCAA | 0.36 kcal/mol
GTAGACACGTGTATGG | 0 kcal/mol
GATTACACGTGTTGTA | 0.23 kcal/mol
GTATGCACGTGAGGCG | 0.06 kcal/mol
TTTTTCACGTGGCACT | 0.14 kcal/mol
GGATTCACGTGAGTCT | 0.38 kcal/mol
TGGTTCACGTGTGAAG | 0.39 kcal/mol
GGCTCCACGTGTTGGT | 0.05 kcal/mol
TAGTTCACGTGCAGAG | 0.3 kcal/mol
GGGTCCACGTGTTTCG | 0.24 kcal/mol
